Experimental data as given in paper PMC4336329 (PLoS ONE, 2015).
Screen size: about 310,000 compounds; about 14,000 (4.5%) showed an effect of 50% or more. The effect is printed as a negative number. The list shows a part of the results.

biological target: human ether-à-go-go-related gene (hERG) potassium channel (human, UniProt Q12809); test: primary screen, population patch clamp on CHO cells stably expressing hERG
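Note: peak tail current of the secondary pulse compared with the same well before compound.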

Sequence of human ether-à-go-go-related gene (hERG) potassium channel (Q12809 whole entry, looked up): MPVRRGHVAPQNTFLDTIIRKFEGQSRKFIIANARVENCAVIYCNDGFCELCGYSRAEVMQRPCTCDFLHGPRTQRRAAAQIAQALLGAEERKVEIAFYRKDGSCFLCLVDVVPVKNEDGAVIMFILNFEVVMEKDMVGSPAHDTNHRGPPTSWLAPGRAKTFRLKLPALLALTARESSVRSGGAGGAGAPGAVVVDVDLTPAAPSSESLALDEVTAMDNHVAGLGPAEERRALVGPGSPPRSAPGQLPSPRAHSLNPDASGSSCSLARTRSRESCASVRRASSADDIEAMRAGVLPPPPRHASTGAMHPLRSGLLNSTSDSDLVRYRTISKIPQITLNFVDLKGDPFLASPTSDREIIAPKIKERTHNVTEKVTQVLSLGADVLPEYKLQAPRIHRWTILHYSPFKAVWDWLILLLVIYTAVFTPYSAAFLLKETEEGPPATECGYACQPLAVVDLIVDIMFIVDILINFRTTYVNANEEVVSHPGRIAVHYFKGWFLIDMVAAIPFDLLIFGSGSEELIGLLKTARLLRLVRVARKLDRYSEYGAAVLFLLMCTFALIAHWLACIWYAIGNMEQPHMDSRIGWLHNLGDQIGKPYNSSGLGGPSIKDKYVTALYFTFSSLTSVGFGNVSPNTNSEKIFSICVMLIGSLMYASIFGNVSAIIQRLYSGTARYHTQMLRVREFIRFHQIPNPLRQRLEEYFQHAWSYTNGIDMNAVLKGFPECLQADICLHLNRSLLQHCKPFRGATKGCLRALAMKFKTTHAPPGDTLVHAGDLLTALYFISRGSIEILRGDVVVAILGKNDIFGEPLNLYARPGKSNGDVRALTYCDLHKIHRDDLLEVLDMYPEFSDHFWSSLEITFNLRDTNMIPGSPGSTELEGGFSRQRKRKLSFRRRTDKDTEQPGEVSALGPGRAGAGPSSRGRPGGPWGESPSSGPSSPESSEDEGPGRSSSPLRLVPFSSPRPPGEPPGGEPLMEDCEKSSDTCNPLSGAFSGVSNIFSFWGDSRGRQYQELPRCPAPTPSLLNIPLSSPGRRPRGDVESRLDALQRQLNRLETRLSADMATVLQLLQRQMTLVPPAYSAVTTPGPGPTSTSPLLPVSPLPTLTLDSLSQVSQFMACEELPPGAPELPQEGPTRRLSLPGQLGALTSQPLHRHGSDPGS

SMILES	hERG current change (%, negative = inhibition) at 10uM [%]
Cn1nc(C(F)(F)F)c2cc(NC(=O)OCC(C)(C)C)sc21	-0.844
COc1ccc(C(=O)NCc2nnc(SCC(=O)NCc3ccco3)o2)cc1	11.3
COc1ccc(C2Nc3ccccc3C(=O)N2c2ccccc2)cc1CN1CCOCC1 (centres unmarked)	-26.7
Cc1cc(C)c2c(=O)[nH]c(SCC(=O)Nc3cccc(S(=O)(=O)N(C)C)c3)nc2n1	-42.1
Cc1cc(Cl)ccc1OCC(=O)OCC(=O)N1CCC(C(N)=O)CC1	-8.07
Cc1ccc2cc(C#N)c(SCc3nnc(-c4ccccc4[N+](=O)[O-])o3)nc2c1	4.55
COc1cccc(CN(C)C(=O)CSc2nc3ccccc3[nH]2)c1OC	3.59
COc1ccccc1N(C)C(=O)c1cc(S(=O)(=O)N2CCc3ccccc32)cn1C	-37.7
CN1/C(=C\C=C(/C#N)C(=O)Nc2ccc(Cl)cc2)C(C)(C)c2ccccc21	13
COc1ccc2[nH]c(=O)c(CN(C(=O)c3cccnc3)c3ccccc3)cc2c1	14.8
CC1Cc2ccccc2N1S(=O)(=O)c1ccc(Cl)nc1 (centres unmarked)	4.68
O=C(CSc1nc2ccccc2nc1N1CCOCC1)N1CCN(c2ccccc2)CC1	-39.2
CC(C)CC(=O)NC(=S)Nc1nc(-c2ccccc2)cs1	30.8
COc1cc(NC(=O)c2ccc(Cl)cc2Cl)ccc1NC(=O)c1cccs1	5.32
COc1ccccc1-c1cc(C(=O)N2CCN(c3ccccc3)CC2)no1	1.4
Cc1cccc(CS(=O)(=O)c2ncc(Cl)c(C(=O)Nc3c(C)cccc3C)n2)c1	13
CCn1cc(C(=O)N2CCOCC2)c(=O)c2cc(S(=O)(=O)N(C)C3CCCCC3)ccc21	0.899
COc1cc(=O)n(C)c2c(OCC3OC(C)(C)OC3(C)C)cccc12 (centres unmarked)	1.87
COc1ccc(CN(C(=O)CN2C(=O)C(C)Oc3ccccc32)C2CCCC2)c(OC)c1 (centres unmarked)	-12.2
CC(C)Cc1nnc(NC(=O)C23CC4CC(CC(C4)C2)C3)s1	5.58
CN(C)S(=O)(=O)c1cc([N+](=O)[O-])ccc1N1CCCCCC1	-8.1
CC(C(=O)Nc1ccc2c(c1)OCO2)N1CCN(C)CC1.O=C(O)C(=O)O (centres unmarked)	8.69
CCOC(=O)C(=CNc1ccc(C(F)(F)F)cc1Cl)C(=O)OCC	9.05

SMILES	hERG current change (%, negative = inhibition) at 10uM [%]
O=C(Cc1cn2ccsc2n1)Nc1nc2c(s1)CN(Cc1ccccc1)CC2	-9.59
O=C(Nc1ccc(Nc2ccccc2)cc1)c1ccccc1F	7.4
CCC1CCCCN1C(=O)CCS(=O)(=O)c1ccccc1 (centres unmarked)	13.7
OC(COc1ccc(OCC(O)CN2CCN(Cc3ccccc3)CC2)cc1)CN1CCN(Cc2ccccc2)CC1 (centres unmarked)	5.65
CN(C)C(=O)c1cccn1-c1ncc(C(F)(F)F)cc1Cl	9.11
O=C(O)c1nccnc1C(=O)Nc1ccc(Cl)cn1	17.6
CCCNC(=O)CCCCn1c(=S)[nH]c2c([nH]c3ccc(OC)cc32)c1=O	15.1
O=C(O)CCSc1nnc(CNc2ccc(Cl)cc2)n1Cc1ccccc1	1.96
COc1ccc(NC(=S)NCCCCCC(=O)C[N+](=O)[O-])cc1	29.1
COc1ccc([C@@H]2[C@@H]3C(=O)N(C(C)(C)C)C(=O)[C@@H]3[C@]3(Cc4ccccc4)C(=O)N(c4ccc(Br)cc4)C(=O)N23)cc1	17.9
CC(Nc1nc2ncn(Cc3ccccc3)c2c(=O)[nH]1)C(=O)O (centres unmarked)	16.8
COC(=O)C(Cc1c[nH]c2ccccc12)N1CCS(=O)(=O)CC1 (centres unmarked)	28.4
CSC(=NS(=O)(=O)c1ccc(C)cc1)SC	-0.185
Cc1ccccc1OCCC(=O)OCC(=O)NC(=O)c1ccccc1	26.1
Cc1cc(-c2ccccc2)n(-c2ccccc2)n1	-2.89
O=C(CSc1ccccc1)NCC1(N2CCOCC2)CCCCC1	-19
COc1ccc(S(=O)(=O)N=Nc2c(O)[nH]c3ccccc23)cc1	25.1
O=C(CCNC(=O)c1ccc(Br)cc1)OCc1ccccc1Cl	-24.4
CN(C)N1C(N)=C(C#N)C(c2ccc3c(c2)OCO3)C2=C1CC(C)(C)CC2=O (centres unmarked)	-0.164
Cc1cc(=O)n2c3ccccc3n(CC(O)CN3CCCC3)c2c1C#N (centres unmarked)	-44.8
COc1ccc(O)c(/C=N/N=C/c2cccc([N+](=O)[O-])c2)c1	12.1
COC(=O)c1cccc(-n2[nH]nnc2=S)c1	3.03
N#C/C(=C\c1cc(O)c(O)c(O)c1)C(N)=O	14.5

SMILES	hERG current change (%, negative = inhibition) at 10uM [%]
CC(=O)NC(CC(=O)Nc1ccc(S(=O)(=O)N2CCCC2)cc1)c1ccccc1 (centres unmarked)	17.9
COc1ccc(CNC(=O)C2CCCN(C(=O)Nc3ccccc3OC)C2)cc1 (centres unmarked)	-1.26
Nn1c(SCc2nc3ccccn3c2Br)nnc1-c1cccnc1	-1.43
COC(=O)Cn1c(C)c(C#N)c2ccccc21	8.07
O=C(N/N=C\c1cccs1)c1ccccc1-n1cccc1	4.66
CCOC(=O)C1=C(C)NC(C)=C(C(=O)OCC)C1C(=O)OCC(=O)N1c2ccccc2CC1C (centres unmarked)	-28.9
O=c1c(O)cccc2cc(O)c(O)c(O)c12	9.73
CN(C)C(=O)c1cn(-c2ccccc2)nc1-c1cccc([N+](=O)[O-])c1	-35.4
Cc1ccc(C(=O)NNC(=O)Cc2csc(-c3csc(C)n3)n2)cc1	14
CC(C)(C)NC1=CC(=O)OC12CCCCC2	-1
CN1C(=O)c2ccccc2N(C)C1c1ccc2c(c1)OCO2 (centres unmarked)	-7.04
CN1CCN(C(=O)c2ccccc2NC(=O)COc2ccccc2Cl)CC1	-20.7
CC(=O)N1CCN(C(=S)Nc2cc(S(=O)(=O)N3CCOCC3)ccc2Cl)CC1	18.4
Cc1cc(=O)oc2cc(OCCCC[n+]3ccccc3)ccc12.[Br-]	4.72
CCCN1C(=O)SC(CC(=O)Nc2ccccc2)C1=O (centres unmarked)	3.39
Cc1ccccc1Nc1nc(N)nc(COC(=O)c2cccc(S(=O)(=O)NCc3ccccc3)c2)n1	-5.83
Cc1cccc2c(CCNC(=O)c3ccc([N+](=O)[O-])cc3)c[nH]c12	-2.68
Br.C=CCn1c(=N)n(CC(=O)c2ccccc2)c2ccccc21	-23.9
Cc1ccc(S(=O)(=O)CCC(=O)NC2CCCC2)cc1	12.4
O=C(NCCNC(=O)c1ccccc1F)c1ccccn1	18.1
COc1ccc(NC2CCCN(C(=O)c3csc(C(C)C)n3)C2)cc1OC (centres unmarked)	4.99
COc1ccc2nc(NC(=O)CSc3nnnn3C)sc2c1	29.3
CS(=O)(=O)c1ccc2nc(NC(=O)c3ccc(N4C(=O)CCC4=O)cc3)sc2c1	6.3

SMILES	hERG current change (%, negative = inhibition) at 10uM [%]
CCCCCCCCN1[C@@H](CC(=O)OCC)c2cc(C(F)(F)F)ccc2S1(=O)=O	-22.5
Cc1ccc(NC(=O)CN(C)S(=O)(=O)c2cccc3cccnc23)cc1	-15.6
CN(C)S(=O)(=O)c1ccc2nnn(O)c2c1	3.43
CCN(CC(=O)Nc1ccccc1C(F)(F)F)C(=O)c1ccccc1SCC(=O)N1CCCC1	5.87
CC1CCN(S(=O)(=O)c2ccc3c(c2)N(C)C(=O)CC(=O)N3C)CC1	-1.1
Brc1cccc(-c2nnc3n2CCCCC3)c1	13
CC1(C)Cc2nc3oc4c(NCCCN5CCOCC5)ncnc4c3cc2CO1	-14.5
Cc1cccc(C(=O)NCC(=O)NC2CCC(C)CC2)c1 (centres unmarked)	4.32
CCOc1cc(N2CCOCC2)c(OCC)cc1NC(=O)c1ccco1	-16.3
CSc1nnc(N2C(=O)C(O)=C(C(=O)c3ccco3)C2c2cccc(Cl)c2)s1 (centres unmarked)	7.39
CCC(=O)Nc1ccc(S(=O)(=O)Nc2cc(C)on2)cc1	18.2
Cc1ccc(C)c(OCC(=O)N(Cc2nnc(-c3ccccc3Cl)o2)C2CC2)c1	-20.9
O=C(O)C1CCN(C(=O)NC2CCCCC2)CC1	2.09
COc1ccc(CCN2CC(O)=C(c3nc(C)cs3)C2=N)cc1OC	-21.8
NS(=O)(=O)c1ccc(N2CCNCC2)cc1	9.82
COCCCC1CCN(C(=O)C2CCC(=O)N(C3CCCC3)C2)CC1 (centres unmarked)	13.5
O=C1C2CCCN2C(c2ccc(F)cc2)N1c1ccc(Cl)cc1 (centres unmarked)	-10.5
CCOC(=O)C(C)C(C)=O (centres unmarked)	18.5
CC(C)C[C@H](NC(=O)c1nc[nH]c1C(=O)N1CCc2ccccc2C1)C(=O)OC(C)(C)C	-9.9
CC1CCCCN1Cc1nc2c(c(=O)n(C)c(=O)n2C)n1CCc1ccccc1 (centres unmarked)	-23.2
